No constants are given. Whether binding was seen depends on the method and setting. Some results given as binding are weak or reduced against the parent protein; the word gives no strength. Where a sequence is shown, tags or fusion partners need not be part of it.

The target of experiment [1] is T1, DOP-2IL-CII (DOP-2XL amino acids 124-849), split-ubiquitin bait in pBT3-SUC (C. elegans) (UniProt E7EM37).
T1 sequence: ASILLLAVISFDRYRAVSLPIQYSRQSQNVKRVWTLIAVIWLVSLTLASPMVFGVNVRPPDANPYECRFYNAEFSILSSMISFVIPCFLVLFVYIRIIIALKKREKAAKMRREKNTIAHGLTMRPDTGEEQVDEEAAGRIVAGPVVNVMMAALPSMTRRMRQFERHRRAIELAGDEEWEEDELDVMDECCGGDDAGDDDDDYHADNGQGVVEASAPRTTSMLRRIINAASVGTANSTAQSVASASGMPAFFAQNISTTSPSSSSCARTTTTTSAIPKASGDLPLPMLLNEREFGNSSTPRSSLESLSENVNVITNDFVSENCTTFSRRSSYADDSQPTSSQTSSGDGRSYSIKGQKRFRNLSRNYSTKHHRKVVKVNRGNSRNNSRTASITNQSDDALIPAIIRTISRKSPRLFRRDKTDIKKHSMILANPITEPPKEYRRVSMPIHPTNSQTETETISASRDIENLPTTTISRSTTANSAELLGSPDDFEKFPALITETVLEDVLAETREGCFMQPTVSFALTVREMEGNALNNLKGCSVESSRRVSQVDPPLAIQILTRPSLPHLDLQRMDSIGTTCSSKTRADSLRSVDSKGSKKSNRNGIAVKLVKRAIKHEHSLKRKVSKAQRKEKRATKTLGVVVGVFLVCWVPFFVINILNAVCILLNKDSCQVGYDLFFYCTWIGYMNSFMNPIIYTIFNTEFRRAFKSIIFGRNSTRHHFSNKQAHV
The experiment can be described thus: two-hybrid; split-ubiquitin pair-wise assay in yeast: DOP-2XL baits (full length in pBT3-STE, truncations in pBT3-SUC) with NubG preys (pPR3-N, pPR3-STE, pDL2-Alg5); growth on SD/-Ade-His-Leu-Trp with 1 mM 3-AT and X-gal filter assay.

The target in experiment [2] is T2, DOP-2IL-CIII (DOP-2XL amino acids 224-849), split-ubiquitin bait in pBT3-SUC (C. elegans) (UniProt E7EM37).
T2 sequence: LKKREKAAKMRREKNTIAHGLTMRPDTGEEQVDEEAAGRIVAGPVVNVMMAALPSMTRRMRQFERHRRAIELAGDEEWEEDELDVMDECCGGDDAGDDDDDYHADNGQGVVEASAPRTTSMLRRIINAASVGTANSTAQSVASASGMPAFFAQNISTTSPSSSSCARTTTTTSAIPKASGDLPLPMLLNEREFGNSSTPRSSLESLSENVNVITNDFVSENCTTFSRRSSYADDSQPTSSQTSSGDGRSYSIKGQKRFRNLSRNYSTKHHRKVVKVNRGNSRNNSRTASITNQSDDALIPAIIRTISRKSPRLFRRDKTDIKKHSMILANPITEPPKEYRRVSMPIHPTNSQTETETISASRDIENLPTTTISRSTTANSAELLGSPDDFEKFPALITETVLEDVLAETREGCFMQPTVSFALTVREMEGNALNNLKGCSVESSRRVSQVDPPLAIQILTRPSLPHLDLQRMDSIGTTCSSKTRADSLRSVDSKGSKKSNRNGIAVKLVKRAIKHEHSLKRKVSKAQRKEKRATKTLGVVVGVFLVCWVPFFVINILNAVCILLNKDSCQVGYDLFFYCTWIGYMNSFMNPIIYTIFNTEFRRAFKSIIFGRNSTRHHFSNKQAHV
The description is as above.

The target in experiment [3] is T3, C. elegans D2-like dopamine receptor DOP-2XL, full-length split-ubiquitin bait (dop-2c in pBT3-STE) (C. elegans) (UniProt E7EM37).
T3 sequence: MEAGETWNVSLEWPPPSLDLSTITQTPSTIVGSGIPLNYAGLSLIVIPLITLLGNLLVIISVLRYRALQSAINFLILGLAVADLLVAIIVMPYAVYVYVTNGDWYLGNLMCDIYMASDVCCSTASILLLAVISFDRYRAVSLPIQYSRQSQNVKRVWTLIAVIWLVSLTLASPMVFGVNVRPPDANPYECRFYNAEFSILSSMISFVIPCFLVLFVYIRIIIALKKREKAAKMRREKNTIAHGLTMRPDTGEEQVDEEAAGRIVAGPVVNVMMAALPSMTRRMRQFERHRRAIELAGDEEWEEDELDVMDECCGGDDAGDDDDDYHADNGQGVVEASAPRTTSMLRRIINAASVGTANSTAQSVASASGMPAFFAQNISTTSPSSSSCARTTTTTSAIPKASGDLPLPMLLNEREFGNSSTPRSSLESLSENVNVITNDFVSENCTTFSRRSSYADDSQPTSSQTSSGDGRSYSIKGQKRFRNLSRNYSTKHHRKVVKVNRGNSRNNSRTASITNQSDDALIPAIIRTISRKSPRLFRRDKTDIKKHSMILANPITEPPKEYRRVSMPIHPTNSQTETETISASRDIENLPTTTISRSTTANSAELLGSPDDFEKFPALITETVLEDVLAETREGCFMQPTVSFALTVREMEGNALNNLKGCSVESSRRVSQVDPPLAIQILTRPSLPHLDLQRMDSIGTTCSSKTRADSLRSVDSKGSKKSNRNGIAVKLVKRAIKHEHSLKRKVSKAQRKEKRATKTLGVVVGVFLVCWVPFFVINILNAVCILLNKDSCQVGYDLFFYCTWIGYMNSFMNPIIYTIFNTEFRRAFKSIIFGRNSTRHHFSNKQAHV
Kind of experiment: two-hybrid; split-ubiquitin library screen: full-length dop-2c bait (pBT3-STE, Cub-LexA-VP16) in S. cerevisiae NMY51 against an adult C. elegans cDNA library in pPR3-N (NubG); selection on -Ade-His-Leu-Trp + 1 mM 3-AT, X-gal filter lift-off assay.

B1: GPA-14, split-ubiquitin prey in pPR3-N (NubG fusion) (protein, UniProt Q9BIG2 1-408)
chain: MAFSCFDKFSYTYCYQCMHGPDGCMVPSRNGEGTELYAHSEELEAKLRELARRGHMEIEKELALEKKTYGSHIKILILGGPLSGKSTIFKQMQIIHVDGFKTDQELIQYRGLIDNNIRDIYLQLIAGSRVVGIPLDPIEHITYEIDEIYAPMSDAFSVRTISELLEPLTEFWNSKQIQEIYKRRCEFELLDSTKYYLENLTRIADPTYLPNQEDIVHSRKATMSINSIVFEYTGVSLLMIDVGGQRSERKKWLHLFDDAKVVLFVIDLTGYAKRSEESRMELSRFPKFFRDVGSNAYDMKVALKIFNEVAAASALANAVFLLFFNKVDLFKEILSQVNLQPCFSKFDGENTYEETSKYICEKFIRAASSKKSVFPHFTTATNTENVKLVFRACMESVFKANAKATGLS
B1: the values for the binding entry in experiment [1], in experiment [2] and in experiment [3] were “binds”, “binds weakly” and “binds”, respectively.

The record behind these values is paper PMC3297496.
